The structures appear in SMILES notation. The list shows a part of the results. Many values rest on one well or one pass, so single values are uncertain.

Cell count data for 6 compounds are collected here from the supplement of paper PMC4604168 (melanoma cell lines).
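Further: cell number obtained by counting DAPI-stained nuclei in high-throughput microscope images with image analysis software, screen run in 1,536-well plates.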

In this test the test system is A375. Description: cell count relative to DMSO control; melanoma cells; higher = more viable cells. Conditions: library dose: low library concentration; 72 h.
`O=C(/C=C/c1cccnc1)NCCCCC1CCN(C(=O)c2ccccc2)CC1` + CN1CCN(c2ccc3nc(-c4c(N)c5c(F)cccc5[nH]c4=O)[nH]c3c2)CC1 [Dovitinib] (first compound 0.01 µM, partner dose 0.1 µM) came in with a cell count of 82.9%. Compound `Cc1ccc(Nc2nccc(N(C)c3ccc4c(C)n(C)nc4c3)n2)cc1S(N)(=O)=O` [Pazopanib] + Cn1cnc2c(F)c(Nc3ccc(Br)cc3Cl)c(C(=O)NOCCO)cc21 [selumetinib] (first compound 0.4 µM, partner dose 0.015 µM) had a cell count of 99.9%. Then `Cc1ccc(Nc2nccc(N(C)c3ccc4c(C)n(C)nc4c3)n2)cc1S(N)(=O)=O` [Pazopanib] + Nc1ccn([C@@H]2O[C@H](CO)[C@@H](O)C2(F)F)c(=O)n1 [gemcitabine] (first compound 0.4 µM, partner dose 0.0004 µM), with 105%; and `Cc1ccc(Nc2nccc(N(C)c3ccc4c(C)n(C)nc4c3)n2)cc1S(N)(=O)=O` [Pazopanib] + O=C(O)c1ccc2c(c1)nc(Nc1cccc(Cl)c1)c1ccncc12 [CX4945] (first compound 0.4 µM, partner dose 0.4 µM), with 89.6%; and `Cc1ccc(Nc2nccc(N(C)c3ccc4c(C)n(C)nc4c3)n2)cc1S(N)(=O)=O` [Pazopanib] + CC(C)(C)c1cnc(CSc2cnc(NC(=O)C3CCNCC3)s2)o1 [SNS-032] (first compound 0.4 µM, partner dose 0.01 µM), with 93.7%. Then `Cc1ccc(Nc2nccc(N(C)c3ccc4c(C)n(C)nc4c3)n2)cc1S(N)(=O)=O` [Pazopanib] + Cn1sc(=O)n(Cc2ccccc2)c1=O [TDZD-8] (first compound 0.4 µM, partner dose 0.4 µM), with 91%.
